According to paper PMC4336329 (PLoS ONE, 2015):
The campaign covered roughly 310,000 compounds. About 14,000 (4.5%) showed an effect of 50% or more. Effects have a minus sign here. The list shows a part of the results.

Molecular target: human ether-à-go-go-related gene (hERG) potassium channel (human, UniProt Q12809)
Assay: primary screen, population patch clamp on CHO cells stably expressing hERG
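Further: peak tail current of the secondary pulse compared with the same well before compound.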

Sequence of human ether-à-go-go-related gene (hERG) potassium channel (Q12809 whole entry, looked up): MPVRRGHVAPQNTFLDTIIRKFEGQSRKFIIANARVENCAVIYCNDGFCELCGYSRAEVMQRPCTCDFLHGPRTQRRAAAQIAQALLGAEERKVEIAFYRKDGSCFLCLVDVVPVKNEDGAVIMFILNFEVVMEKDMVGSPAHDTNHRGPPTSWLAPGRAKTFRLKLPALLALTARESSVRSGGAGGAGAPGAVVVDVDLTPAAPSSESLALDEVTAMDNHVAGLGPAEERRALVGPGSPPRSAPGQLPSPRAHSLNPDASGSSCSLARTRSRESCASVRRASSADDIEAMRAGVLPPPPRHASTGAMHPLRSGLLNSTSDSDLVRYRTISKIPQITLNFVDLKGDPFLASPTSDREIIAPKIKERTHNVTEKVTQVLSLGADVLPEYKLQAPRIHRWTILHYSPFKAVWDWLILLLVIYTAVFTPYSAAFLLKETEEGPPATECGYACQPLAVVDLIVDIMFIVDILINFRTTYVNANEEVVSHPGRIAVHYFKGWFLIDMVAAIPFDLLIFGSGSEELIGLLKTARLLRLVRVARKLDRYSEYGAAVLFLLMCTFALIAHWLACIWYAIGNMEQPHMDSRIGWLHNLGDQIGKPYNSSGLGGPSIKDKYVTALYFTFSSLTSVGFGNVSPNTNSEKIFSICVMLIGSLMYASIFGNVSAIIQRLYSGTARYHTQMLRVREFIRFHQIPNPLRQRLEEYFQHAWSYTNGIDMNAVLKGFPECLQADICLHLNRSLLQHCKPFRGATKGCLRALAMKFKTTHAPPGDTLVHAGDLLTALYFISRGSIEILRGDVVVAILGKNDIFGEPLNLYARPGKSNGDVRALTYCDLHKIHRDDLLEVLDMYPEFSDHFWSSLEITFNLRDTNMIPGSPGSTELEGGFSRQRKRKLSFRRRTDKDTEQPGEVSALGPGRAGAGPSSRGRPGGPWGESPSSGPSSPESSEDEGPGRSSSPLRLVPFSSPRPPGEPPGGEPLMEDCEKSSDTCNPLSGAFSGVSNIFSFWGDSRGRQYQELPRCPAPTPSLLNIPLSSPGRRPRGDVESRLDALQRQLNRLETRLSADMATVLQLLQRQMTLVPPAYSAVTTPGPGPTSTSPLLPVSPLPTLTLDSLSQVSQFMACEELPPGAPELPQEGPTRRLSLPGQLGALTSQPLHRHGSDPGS

Row | Structure (SMILES) | hERG current change (%, negative = inhibition) at 10uM
1 | Cc1cc(OCC(=O)N(C)C2CCCCC2)cc(C)c1Cl | -0.813%
2 | CCOC(=O)c1ccc2nc(C)c(CC)c(Cl)c2c1 | 10.3%
3 | Cn1ncc2c(Nc3ccccc3Cl)nc(Nc3ccccc3Cl)nc21 | 15.5%
4 | COc1ccccc1CNC(=S)Nc1cc(C)ccc1C | 5.52%
5 | O=C(O)CSc1c[nH]c2ccccc12 | 14%
6 | COc1ccc(-n2nc(C(=O)NCC(=O)NCCCN3CCN(C)CC3)c3ccccc3c2=O)cc1 | 12.5%
7 | CCc1c(C#N)sc(C(N)=O)c1CC | 13.3%
8 | OCCN(CCO)c1ccc(C(c2ccccc2Cl)c2ccc(N(CCO)CCO)cc2Cl)c(Cl)c1 | -30%
9 | Cc1ccc(C2NC(=O)c3ccccc3N2)s1 (stereo not shown) | -0.319%
10 | O=C(CCCOc1ccccc1)Nc1ccccc1C(F)(F)F | -6.98%
11 | Nc1c(C(=O)N/N=C/c2cccnc2)oc2nc(-c3ccccc3)cc(-c3ccco3)c12 | 22.3%
12 | CC1(C)CC(=O)c2cc(OCC(=O)NCCN3CCOCC3)ccc2O1 | 22.7%
13 | CCOc1cc(C(=O)CCC(=O)OCC(=O)Nc2ccc(C)c(S(=O)(=O)N(C)C)c2)ccc1O | -32.7%
14 | COc1ccc(-c2ccccc2NC(=O)C2CCCN(Cc3ccc(C)o3)C2)cc1 (stereo not shown) | -37.2%
15 | c1ccc2c(CSCc3nc4ccccc4[nH]3)cccc2c1 | -15.3%
16 | CC1=CN2C(=N)/C(=C\c3cn(CCCOc4ccccc4)c4ccccc34)C(=O)N=C2S1 | -3.08%
17 | O=C(O)c1ccc(NC(=O)c2cccs2)cc1 | 10.1%
18 | CC1CCCN(C(=O)C2CCN(Cc3ccc4c(c3)OCO4)CC2)C1.O=C(O)C(=O)O (stereo not shown) | -0.604%
19 | Cn1cc(CCC(=O)NC2CC2)c2ccccc21 | 3.32%
20 | Cc1ccc2c(c1)N(CC(=O)N1CCOCC1)C(=O)C(C)O2 (stereo not shown) | 17.6%
21 | CC(C)[C@H]1COC(NC2=N[C@@H](C(C)C)CO2)=N1 | 0.625%
22 | COc1ccc(NS(=O)(=O)c2cccc(C(=O)NNC(=O)CNC(=O)c3ccccc3F)c2)cc1 | -5.59%

Row | Structure (SMILES) | hERG current change (%, negative = inhibition) at 10uM
23 | CC(Oc1ccccc1)C(=O)NC1CCSc2ccccc21 (stereo not shown) | -15%
24 | CCc1nc2ccc(C(=O)NCCc3ccc(OC)cc3)cc2nc1CC | 3.21%
25 | Cc1cccc(C)c1NC(=O)NC1(C(=O)N2CCCC2)CCCCC1 | 20.3%
26 | O=C(CNC(=O)c1ccc(Br)cc1)NC1CC1 | -0.987%
27 | COc1ccc(C(=O)Nc2cccc(-c3nc4ncccc4o3)c2C)cc1 | -4.81%
28 | Cc1c(N/C=C/C(=O)c2ccc(Cl)cc2)c(=O)n(-c2ccccc2)n1C | -24.2%
29 | O=C(OCc1nnc(-c2ccccc2)o1)C1CCN(S(=O)(=O)c2cccs2)CC1 | -18.1%
30 | CCn1c(COc2cccc3ccccc23)nnc1SCC(N)=O | 12.6%
31 | C/C(=N\NC(=O)c1ccncc1)c1ccc(N(C)C)cc1 | 15.5%
32 | CCCCC1=CC2=CC(=O)C(C)(OC(=O)c3ccco3)C(=O)C2=CO1 (stereo not shown) | 0.553%
33 | CCN(CC)C(=O)C1CCC(C)(C(=O)O)C1(C)C (stereo not shown) | 3.91%
34 | O=C(CSc1nnnn1-c1ccc(O)cc1)Nc1cccc(S(=O)(=O)N2CCCC2)c1 | -16.1%
35 | Cn1c(C(=O)N2CCCC(C(=O)NCc3ccc4c(c3)OCO4)C2)cc2sccc21 (stereo not shown) | -45.3%
36 | CCOC(=O)Cc1csc(NC(=O)c2sc3nc4cc(C)ccc4cc3c2N)n1 | -6.55%
37 | CCOC(=O)c1cc(C)sc1NC(=O)CN1CCN(C(=O)c2ccco2)CC1 | -72.8%
38 | Cc1ccc(S(=O)(=O)NC(=O)c2cc(C)n(CCCN3CCOCC3)c2C)cc1 | 13.7%
39 | COc1ccc(CCN(C)Cc2ccncc2)cc1OC | -27.2%
40 | Cc1cccc(N2CCN(S(=O)(=O)c3ccc4c(c3)CCN4C(=O)CCC(=O)O)CC2)c1C | -1.59%
41 | COC(=O)c1cc(NC(=O)Cn2nc(C)n3cccc3c2=O)cc(C(=O)OC)c1 | 4.88%
42 | CC1CN(C(=O)c2cccs2)CCN1C(=O)c1cccs1 (stereo not shown) | 3.29%
43 | COc1ccc(C(=O)OCC(=O)Nc2ccccc2)cc1[N+](=O)[O-] | 10.9%
44 | CCCCNC(=O)Nc1ccccn1 | 7.81%

Row | Structure (SMILES) | hERG current change (%, negative = inhibition) at 10uM
45 | Clc1ccc(OCc2nnnn2-c2ccccc2)cc1 | -17.1%
46 | CC(Sc1nncn1C)C(=O)NCc1ccc2c(c1)OCO2 (stereo not shown) | 34.9%
47 | NS(=O)(=O)c1ccc(NC(=S)NCc2ccc3c(c2)OCO3)cc1 | 28.2%
48 | CCc1ccc(NC2=CC(=O)CC(c3ccco3)C2)cc1 (stereo not shown) | 5.49%
49 | Cc1cc(C)c(NC(=O)CN2CCN(c3ccccn3)CC2)c(C)c1 | -14.6%
50 | COc1cc(C(=O)NCCC2=CCCCC2)ccc1OC1CCN(C(C)=O)CC1 | 2.98%
51 | Nc1c(Cl)c(Cl)nc(C(=O)N/N=C/c2ccco2)c1Cl | 13.6%
52 | COC(=O)C1=CO[C@@H](O[C@@H]2O[C@H](CO)[C@@H](O)[C@H](O)[C@H]2O)[C@H]2[C@@H]1C(=O)C[C@@H]2C | 23.3%
53 | CC1CN(C(=S)NC(=O)C2CCCCC2)CC(C)O1 (stereo not shown) | 1.44%
54 | COc1cc(OC)c(NC(=O)CN(C)S(=O)(=O)c2ccc(-c3ccc(=O)[nH]n3)s2)cc1Cl | -56.5%
55 | CCCc1nnc(NC(=O)C23CC4CC(CC(C4)C2)C3)s1 | 18.8%
56 | COC(=O)CCCNC(=O)CCc1nnc(-c2ccc(-c3ccccc3)cc2)o1 | 11.5%
57 | O=C(CN(C(=O)CNC(=O)c1ccco1)c1ccc2c(c1)OCCO2)NC1CCCC1 | 6.06%
58 | O=C(NCC1(N2CCCCC2)CCCCC1)c1ccc(S(=O)(=O)N2CCCC2)cc1 | -21.7%
59 | O=C(O)c1ccc2c(c1)-c1nc3ccccc3n1C2=O | 14%
60 | Cc1cc(-c2ccc(S(=O)(=O)N3CCN(c4ccc(F)cc4)CC3)s2)on1 | 10.5%
61 | CCNC(=O)N1CCC(n2nccc2NC(=O)CCOc2ccccc2)CC1 | 9.99%
62 | Cc1sc(NC(=O)C2=COCCO2)nc1-c1ccc(Cl)cc1 | 13%
63 | CCc1nn2c(=O)cc(COC(=O)c3cc(Cl)c(OC)c(OC)c3)nc2s1 | -69.5%
64 | CCN(CCC(=O)Nc1cc([N+](=O)[O-])ccc1OC)Cc1ccccc1 | -34.9%
65 | COC(=O)c1sc2nc(CSc3nc4ccc(C)cc4[nH]3)[nH]c(=O)c2c1C | 17.4%
66 | CCO[C@@H]1OC(C(=O)Nc2ccccc2)=C[C@H](c2csc3ccccc23)[C@H]1CCCO | -45.8%

Row | Structure (SMILES) | hERG current change (%, negative = inhibition) at 10uM
67 | CSc1nc(-c2ccc(C)cc2)nc(C(Cl)Cl)n1 | 6.95%
68 | Cc1c(C(=O)NN2CCOCC2)oc2ccccc12 | 16.5%
69 | O=C(NCCc1cccc(F)c1)C1CCN(S(=O)(=O)c2ccc(F)cc2)CC1 | -2.7%
70 | C/C(Cl)=C/Cn1c(=O)c2c(nc(Br)n2Cc2ccccc2)n(C)c1=O | -5.85%
71 | COc1ccc(CCNC(=O)Cn2c(=O)[nH]c3ccsc3c2=O)cc1OC | 11%
72 | CCC(CO)NC(=O)c1cc2c(s1)CCC2 (stereo not shown) | 1.21%
73 | N#C/C(=C\c1c(N2CCN(c3ccccc3)CC2)nc2ccccn2c1=O)C(N)=O | -43%
74 | CC(C)C[C@H](NC(=O)c1[nH]cnc1C(=O)Nc1ccc(CNC(=O)OC(C)(C)C)cc1)C(=O)OCc1ccccc1 | 9.41%
75 | COC(=O)CN(c1ccccc1)S(=O)(=O)c1cc(Br)ccc1OC | -25.5%
76 | COc1ccc(Nc2nc(N)nc(CSCCO)n2)cc1 | -7.19%
77 | Cc1cc(-c2cc(C(=O)NC3CCCC3)on2)nc(NCC2CC2)n1 | 4.61%
78 | Cn1c(=O)c2c(nc(NC(Cc3ccccc3)C(=O)O)n2Cc2ccccc2)n(C)c1=O (stereo not shown) | -1.44%
79 | CCN1CCCn2c1nc1c2c(=O)n(C)c(=O)n1C | 4.13%
80 | O=c1c2c3c(sc2nc2n1CCCCC2)C(O)CCC3 (stereo not shown) | 3.27%
81 | O=C(OCN1C(=O)c2ccccc2C1=O)c1cccs1 | 9.62%
82 | CCOCCCNC(=O)c1cc(=O)n(Cc2cccc(C)c2)c2ccccc12 | -43.6%
83 | Cc1ccc(-c2c(C)sc3nc(CN4CCN(CC(=O)NC5CC5)CC4)[nH]c(=O)c23)cc1 | -71.5%
84 | COc1cccc(C(=O)N2CCC(C(=O)NCc3ccco3)CC2)c1 | -14.9%
85 | COc1ccc(OC)c(NC(=O)CSc2nnc(-c3cnccn3)n2C)c1 | 9.4%
86 | CC(C)C(C)NC(=O)COC(=O)c1cc(S(=O)(=O)N(C)C)ccc1N1CCCC1 (stereo not shown) | 7.36%
87 | Cc1ccc(S(=O)(=O)Oc2ccc(/C=N/NC(=O)c3nn(C)cc3Cl)cc2)cc1 | 5.56%
88 | C=CCN(C(=O)CCc1ccccc1OC)c1nc(-c2ccc(S(C)(=O)=O)cc2)cs1 | 6.27%
